# About 540 (0.19%) of roughly 280,000 compounds were called active. About 2% were inconclusive and are not listed. Calls come from the whole dose curve; as a rule, active = well fitted activation curve with a large enough effect; inconclusive = small, poorly fitted or top-dose-only effect; inactive = flat fitted curve, though single readings scatter. Only a part is listed here, and it is no random draw.
# Assay: Quantitative High-Throughput Screen for Regulators of Epigenetic Control; note: nearly all actives have a fitted effect of over 60% in size; for GFP activation: % of control where 0% means no effect
# Conditions: murine LDR cells, GFP reporter derepression, 30 h; series mostly up to 53.9 µM; GFP activation: at the top concentration
# In short: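 Murine LDR cells bearing a silenced CMV-driven GFP reporter were exposed to compound for 30 h at 37 C. After PBS washes, GFP-positive cells (20-120 um objects) counted by laser-scanning microplate cytometry.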
# Potency is the fitted concentration of half-maximal effect.
Compound,Potency,GFP activation
COc1ccc(-c2cc(C(F)(F)F)c3c(n2)sc2c(O)cc(=O)[nH]c23)c(OC)c1,active: 11.2 µM,–
O=C(Cn1c(=O)n(-c2ccccc2)c(=O)c2ccc(C(=O)NCc3ccc4c(c3)OCO4)cc21)Nc1ccc(Br)cc1,active: 15.8 µM,–
O=C(N/N=C/C=C/c1ccco1)c1cccs1,active: 17.8 µM,–
COc1cccc(-c2nnc(SCC(=O)OC(C)C)n2Cc2ccco2)c1,–,inactive: 1.9%
CC(=O)n1cc([C@H]2C=C(C(=O)N3CCN(Cc4ccc5c(c4)OCO5)CC3)O[C@@H](OCc3ccc(CO)cc3)C2)c2ccccc21,–,inactive: 2.26%
O=C(N/N=C/C(Br)=C\c1ccccc1)c1cccs1,–,inactive: 5.01%
Cc1cc(Cl)ccc1OCC(=O)OC(C)C(=O)N(C)C (stereo unspecified),–,inactive: -5.46%
Cc1ccccc1CN1c2ccccc2-c2nc(SCC(=O)NCCc3ccccc3)ncc2S1(=O)=O,active: 22.4 µM,–
Cc1cc(/C=C\c2ccc3cc(N(C)C)ccc3[n+]2C)c(C)n1-c1ccccc1,–,inactive: 11.3% [at 16.9 µM]
CCCc1nnc(NC(=O)CC(=O)OCC)s1,–,inactive: 1.08%
CN(c1ccccc1)c1ccc(/C=c2\s/c(=C(/C#N)C(=O)C(C)(C)C)n(Cc3ccco3)c2=O)cc1,active: 6.31 µM,–
COc1ccccc1N1CCN(Cc2cc(COC(C)C)c3cccnc3c2O)CC1,active: 3.55 µM,–
COc1ccc2oc(=O)c(-c3nc4ccc(C)cc4[nH]3)cc2c1,active: 11.2 µM,–
COc1ccccc1NC(=O)c1nnn(CC(=O)Nc2cccc(SC)c2)c1N,–,inactive: -17.5%
O=C1Cc2c([nH]c3ccc(Br)cc23)-c2ccccc2N1,–,inactive: 16.9%
CCCCNC(=O)CCC(=O)NNc1nc2ccccc2c2nc(-c3ccccc3)nn12,–,inactive: -1.11%
CC(=O)Nc1cc(C(F)(F)F)ccc1OCC1CCCO1 (stereo unspecified),–,inactive: -3.37%
CN1CCN(S(=O)(=O)c2ccc(N(C)CC(=O)Nc3ccc(F)cc3)nc2)CC1,–,inactive: -7.78%
N#C/C(=C/c1ccc(N2CCOCC2)o1)c1nc2ccccc2[nH]1,active: 15.8 µM,–

Compound,Potency,GFP activation
CC1CCN(S(=O)(=O)c2nnc(NC(=O)c3cccc(F)c3)s2)CC1,active: 12.6 µM,–
Cc1cccc(NC(=O)CSc2nc(-c3cccs3)cc(C(F)(F)F)c2C#N)c1,active: 14.1 µM,–
CCCCN(c1ccccc1)S(=O)(=O)c1ccc2c(c1)CCN2C(=O)CCC(=O)O,–,inactive: -15.2%
Cc1ccc2nc(NCCCNC(=O)c3cnccn3)c(C#N)cc2c1,–,inactive: -7.69%
COc1ccc(-n2c(C)cc(/C=C3\SC(=S)NC3=O)c2C)cc1,active: 25.1 µM,–
CC(C)(C)OC(=O)NCCc1nnc(SCC(N)=O)o1,–,inactive: -5.26%
Cc1ccc(-n2c(=O)c3ccc(C(=O)NCc4ccco4)cc3n(Cc3ccccc3C#N)c2=O)cc1,–,inactive: 14.9%
CCN1CCN(c2c(/C=C3\SC(=S)N(Cc4ccco4)C3=O)c(C)c(C#N)c(=O)n2C)CC1,active: 7.08 µM,–
CC1=C(C(=O)N2CCCCC2)C(c2cccs2)C2=C(CCCC2=O)N1 (stereo unspecified),–,inactive: -6.35%
Cc1ccc(Cn2nnc3c(=O)n(CC(=O)c4ccccc4)cnc32)cc1,–,inactive: 2.56%
COc1ccccc1-[n+]1c(C)cc(/C=C2\Sc3ccccc3N2C)cc1C,active: 7.94 µM,–
COc1cccc(OCCOCCN(C)CCO)c1,–,inactive: -15.9%
COc1ccc(-n2cc(-c3ccccc3)c3c(N4CCN(CCO)CC4)ncnc32)cc1,–,inactive: 0%
N#Cc1c(-c2ccc(F)cc2)cc(C2CC2)nc1SCC(=O)c1cccs1,active: 10 µM,–
CN(C)c1ccc(CN(C(=O)C2COc3ccccc3O2)C2CCS(=O)(=O)C2)cc1 (stereo unspecified),–,inactive: 4.14%
CCCOCC(O)COc1ccccc1C(=O)N1CCOCC1 (stereo unspecified),–,inactive: -6.29%
COc1cc(COc2cc(N)c(Cl)cc2C(=O)CCC2CCN(CCNS(C)(=O)=O)CC2)cc(OC)c1,–,inactive: 11.1%
Cc1nonc1NC(=O)CSc1nc2c(C)cccc2cc1C#N,active: 15.8 µM,–
N#C/C(=C\c1ccc([N+](=O)[O-])o1)c1nc2ccccc2[nH]1,active: 2.82 µM,–

Compound,Potency,GFP activation
CCCCC/C=C/C=C1/C(=O)C=C[C@@H]1C/C=C\CCCC(=O)O,inactive,–
Nc1c2ccccc2nc2ccccc12,–,inactive: 0%
COC(=O)C1CCN(C(=O)c2sc3nc(-c4ccc(F)cc4)cn3c2C)CC1,–,inactive: -12.1%
CCN(c1ccc(N=Cc2c(O)n(Cc3ccc(OC)cc3)c(=O)c3ccccc23)cc1)C(C)C,active: 2 µM,–
CCc1cccc2cc3c(N)c(C(=O)Nc4ccc(S(=O)(=O)N5CCCC5)cc4)sc3nc12,active: 11.2 µM,–
COc1cccc2c1C(=O)c1c(O)c3c(c(O)c1C2=O)C[C@@](O)(C(C)=O)C[C@@H]3O[C@H]1C[C@H](N)[C@H](O)[C@H](C)O1,inactive,–
COC(=O)C(NC(C)=O)(Nc1nc2ccc(S(C)(=O)=O)cc2s1)C(F)(F)F (stereo unspecified),–,inactive: -8.62%
Cc1sc2nc(SCC(=O)NCc3ccco3)n(CCc3ccccc3)c(=O)c2c1C,–,inactive: -14.3%
COc1cc(/C=C2/CC/C(=C/c3ccc(O)c(OC)c3)C2=O)ccc1O,active: 25.1 µM,–
O=C(C1=C[C@H](c2csc3ccccc23)C[C@H](OCc2ccc(CO)cc2)O1)N1CCN(Cc2ccccc2)CC1,–,inactive: 13.8%
Cc1ccc(-n2c(SCC(=O)N3CCOCC3)nnc2-c2ccncc2)cc1,–,inactive: 1.28%
COC(=O)c1c(C)[nH]c(C(=O)OCc2ccc(F)cc2)c1C,–,inactive: -10.8%
CCOc1ccc(-n2c(SCC(=O)Nc3nccs3)nc3c(c2=O)SCC3)cc1,–,inactive: 0.381%
COc1ccccc1CNC(=O)C(C)NS(=O)(=O)c1ccccc1 (stereo unspecified),–,inactive: -15.9%
Cc1cc2n(n1)C(c1sccc1C)Nc1c(C)cccc1-2 (stereo unspecified),–,inactive: -1.9%
O=C1Nc2ccccc2OC1CC(=O)N1CCCC1 (stereo unspecified),–,inactive: -0.901%
Cc1ccc(-c2noc(-c3ccccc3NC(=O)C3CC(=O)N(c4cccc(C)c4)C3)n2)cc1 (stereo unspecified),active: 15.8 µM,–
CCC1S/C(=C(\C#N)C(=O)NCc2ccco2)N(c2ccc(F)cc2)C1=O (stereo unspecified),–,inactive: -16.6%
